The results in this text go back to the supplement of paper PMC11417369.

± gives the standard deviation of the averaged measurements. Some of the results follow.

The assay has as its system PfAP2-I AP2 domain 3 (GST-tagged). Description: gcPBM binding intensity (ln(normalized median fluorescence intensity)); higher = stronger DNA binding. In a few lines: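 Binding intensity is the highest Masliner-normalised natural-log median intensity over replicate spots in either probe orientation. To obtain it, GST-tagged P. falciparum DNA-binding domains made in E. coli were incubated for 1 h on an Agilent 4 × 180k array of primer-extended double-stranded 36-bp intergenic genomic probes plus negative controls. Detection used Alexa488 anti-GST antibody with scanning at 488 nm.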
In the case of “TTTTTTTGTTTTGTTTTTTTTTTTTTTTTTTTTTTG [CACACA_negctrl_site570]”, the “gcPBM binding intensity (ln)” value was 7.39 ± 0.58.
The same measure for “TGCTTAATTTACGTGGGTACATACACCTCATATATT [XGTACX_site3093]”: 8.28 ± 0.82; for “ATATATGTATATTTTTGTACGCATAAATATATTTTT [XGTACX_site827]”: 7.8 ± 0.21; for “TTTTTATACAATTAGACACACACAAAAAGTATATAT [CACACA_site8272]”: 7.78 ± 0.64.
The same measure for “TTAATACATATATATATATTATATATATATATATAT [TGCATGCA_negctrl_site177]”: 9.12 ± 0.43; for “ATTATTTTAATTTTAATTTTTTTTTTTTTTTGTTTT [CACACA_negctrl_site1063]”: 7.34 ± 0.49; for “TATTTTTCCATAAAAATTTATATAGAAACAAATAAT [GTGCAC_negctrl_site103]”: 7.75 ± 0.46.
The same measure for “CCCTTTTATTAAAATTCACACACATAAATTTTTATA [CACACA_site8611]”: 8.06 ± 0.41; for “TACTATAAGATATATACACACAAGAAATACAAAACG [CACACA_site6764]”: 8.13 ± 0.76.
Turning to “GAATATGAATATTTGCGTACTTATATAACTGTTCTA [XGTACX_site883]”, the “gcPBM binding intensity (ln)” value was 7.69 ± 0.49.
Then “AAAAAAAATAATAATACACACAATATGATATGTACA [CACACA_site850]”, with 7.58 ± 0.35; and “ATACACATTCGAAATAACAAAAAAATACATACACAT [GTGCAC_negctrl_site628]”, with 8.02 ± 0.66.
Then “ATGATTATTTTAAAAAGTACTAATTATTATTTTTTT [XGTACX_site7242]”, with 7.6 ± 0.35; and “ATGATAGTATGTATGAGTACGAAAAAAAAAAATTAA [XGTACX_site32]”, with 7.77 ± 0.64; and “ATATATATATATATTGTACACACATTTATGCATATA [CACACA_site9055]”, with 9.4 ± 0.18.
The same measure for “TGTGGGAATAACCACACACACACACCCATATATATA [CACACA_site5876]”: 8.29 ± 0.71.
As for “AAATGCAAATGATGATGTACATACAAAAATTAAATT [XGTACX_site5323]”, the “gcPBM binding intensity (ln)” value worked out at 8.15 ± 0.64.
Then “ATATATATATATATATGTACATATCACTTTAAATAT [XGTACX_site3859]”, with 9.04 ± 0.24.
Then “TTTTCTTAAAAAATCAAACACACATATATATATACA [CACACA_site2297]”, with 7.6 ± 0.51; and “AAAATGTATATATAAACATGCACACGTGGTTGTATA [TGCATGCA_site847]”, with 8.4 ± 0.54; and “TATCGTTATATAATATGTACATATAAAATTTAAATT [XGTACX_site1887]”, with 7.99 ± 0.5.
The same measure for “TCTTAAATTTCTTTATGTACATAATTAATATATTTA [XGTACX_site4456]”: 7.72 ± 0.35; for “TATATATTATGACCACCACACACCTATACGCATAAC [CACACA_site2447]”: 8.3 ± 0.45; for “AAAAATATATAAAGAAAAAGAATATAATATAAAATA [GTGCAC_negctrl_site208]”: 7.66 ± 0.49.
As to “ATTGTAGAATTTAATAGTACTCACGAATAAAATAAA [XGTACX_site6280]”, the “gcPBM binding intensity (ln)” value amounted to 7.7 ± 0.42.
Then “AAAAAAAAAGTATTATGTACATAAAAATAAAAAAAT [XGTACX_site4166]”, with 7.87 ± 0.66; and “GTTTATGTTAAACCATGTACTTAATATTTTATTCTT [XGTACX_site3761]”, with 7.67 ± 0.67; and “TATTAAAATATGTCAGTTCTTAAAAAGTTGATGAGT [GTGCAC_negctrl_site77]”, with 7.63 ± 0.58.
The same measure for “TATGATTCATAATAGTGTACGTAAAAATTGACTAGA [XGTACX_site5376]”: 8.22 ± 0.26; for “TATAATATGAACAGTACACACAAAATAAATTCGTAT [CACACA_site3586]”: 7.81 ± 0.51.
The same measure for “ATTCAAAATAATAGAATTGTTAAAGTTGTAAATTGA [CACACA_negctrl_site727]”: 7.53 ± 0.36; for “AAAAATAAATATACATGTACTTAAAATAATCGAATA [XGTACX_site8432]”: 7.67 ± 0.39.
As for “TATATTTTTATATTTTGTACATATAGTAAATATAAA [XGTACX_site4768]”, the “gcPBM binding intensity (ln)” value amounted to 7.59 ± 0.34.
Regarding “CTCAAACAATATTATATAATAAAGTACATATATATT [CACACA_negctrl_site446]”, the “gcPBM binding intensity (ln)” value was found to be 7.66 ± 0.42.
The same measure for “GAACAGAAAAAGAATAGTACATATATATATATATAT [XGTACX_site3700]”: 9.35 ± 0.55; for “ACGTATCAAAAAATTTGTACATATATATATATATAT [XGTACX_site1024]”: 9.51 ± 0.4; for “AAAACATACAGATATACACACATATATATATATATA [CACACA_site5091]”: 9.29 ± 0.4.
The same measure for “ATATTTAAACGATGGTGTACATATATTACAAGTTGT [XGTACX_site1743]”: 8.15 ± 0.64; for “ATATAGATCTACACTGCACACATTTTTAACACTGCT [CACACA_site1882]”: 9.04 ± 0.5.
The same measure for “TATACATATATATATACACACATATATATATATACA [CACACA_site402]”: 7.66 ± 0.34; for “ACGCATGTAATTTATACACACATTCTTTTATATTTT [CACACA_site3708]”: 7.67 ± 0.71; for “AAATTATTATCGTTAATATGTATATATGTGCCAAGT [TGCATGCA_negctrl_site557]”: 8.06 ± 0.44.
As for “GCATTTTAATAATTATGTACATATATTATTCCTGGT [XGTACX_site3664]”, the “gcPBM binding intensity (ln)” value was 8.08 ± 0.64.
For the sequence “TTCCATCAAAAAATGGGTACACATTATAGAAATATT [XGTACX_site8482]”, the “gcPBM binding intensity (ln)” value was 8.02 ± 0.014.
Then “TTGAAATTAAATGACATACACACTATATTATATATT [CACACA_site3135]”, with 7.51 ± 0.4; and “AAAAATAAAGTAAAAGCATGCTAGTATATGGAAAAT [TGCATGCA_site486]”, with 8.39 ± 0.52; and “CATATACGCAAACACACACACATATATATATATATA [CACACA_site501]”, with 9.58 ± 0.21.
For the sequence “AGGTATATATATTTATGTACTTAAAATGAGAAAATA [XGTACX_site8337]”, the “gcPBM binding intensity (ln)” value is 7.93 ± 0.23.
The same measure for “TATAATAATATTTATTGTACAATTAGGTTAATTCAT [XGTACX_site1986]”: 7.83 ± 0.51; for “AATCTAATGTAATGCATACACACAACTATCCATCAA [CACACA_site535]”: 8.23 ± 0.31.
On to “AATATACGAAATTGTGCACACATATATTTATGTATG [CACACA_site1510]”, for which the “gcPBM binding intensity (ln)” value came to 10.5 ± 0.16.
The same measure for “TAAAATGAAGGAATATGTACATAAATAAACATATAT [XGTACX_site6266]”: 7.61 ± 0.62; for “CATATATGATATATTAGTACATATATATATATATAT [XGTACX_site1574]”: 9.36 ± 0.49.
Then “CGATATAAAGATATTAGTACATATGCATGCTTGTCT [XGTACX_site8629]”, with 7.57 ± 0.74; and “AAACTCTCTTATATTAAACACACATATATATATGTA [CACACA_site8865]”, with 7.69 ± 0.62.
Then “AAAAACTTTTCAAGTAGTACCATATCTACAATAGTA [XGTACX_site8927]”, with 7.54 ± 0.43; and “AAACAAAAGATATATACACACTAAACATAAAAAAAA [CACACA_site6161]”, with 7.75 ± 0.56; and “CCTTTATTAAATAAATGTACATATTTTTGTGTTCTT [XGTACX_site2052]”, with 7.9 ± 0.47.
As for “GTTGGTAGGATGTATGGTACACGTAGTATTTTTCTT [XGTACX_site2]”, the “gcPBM binding intensity (ln)” value was 8.28 ± 0.13.
The same measure for “AATAAAAATAAAATTGTATATTTTAAATGAAAATAA [CACACA_negctrl_site898]”: 7.36 ± 0.51; for “CAAATTGGGAAATTTTGTACATATAATAAGGATACC [XGTACX_site7728]”: 7.94 ± 0.51; for “GATAATGAATGATGCACACTAAAAATATTCTACAAC [CACACA_site3622]”: 8.66 ± 0.16.
Take “CCGTATATTTTATATAGTACTCATCATATATTTTTA [XGTACX_site5560]”: the “gcPBM binding intensity (ln)” value was found to be 7.69 ± 0.65.
In the case of “TTTTTAATTTTTTTTAAACACACACCGTACATTCAA [CACACA_site7925]”, the “gcPBM binding intensity (ln)” value amounted to 8.17 ± 0.17.
The same measure for “TATATATATACATATTGTACATATTACATGCTATTA [XGTACX_site1184]”: 8.66 ± 0.42.
Then TCATTTTAAATATGTGTGCACGTTATAATTTACACA, with 10.5 ± 0.15; and “TATATACTTTATAAATGTACATATAATGTATTATTT [XGTACX_site7313]”, with 7.57 ± 0.36; and “ATAGATAAATTTACGGGTACTAAAATGGAATATGAA [XGTACX_site8637]”, with 8.19 ± 0.56.
Then “ATTCACATATTATCTTTACACACTATATATAAGTTT [CACACA_site8901]”, with 8.05 ± 0.76; and “TATTTTACAATAACAATACACACTATAATATATATA [CACACA_site1391]”, with 8.04 ± 0.43; and “TGTGTTCAGTATTGCACACACACAACCAAATAAAAA [CACACA_site379]”, with 10 ± 0.71.
With “CATCAAAATGCTACATGTACATATATATAATATATT [XGTACX_site5207]”, the “gcPBM binding intensity (ln)” value is 7.91 ± 0.4.
The same measure for GAAATGAACAAGTGGGTGCGTATTAATTACATATTA: 9.785 ± 0.035; for “AATATATATAAATAAACACACACAAATATAATAAAA [CACACA_site9176]”: 7.97 ± 0.59; for “AAAATTATATATTATAGTACATAAAATTTTGATATA [XGTACX_site994]”: 7.63 ± 0.34.
Then “TTAGTTATTATAATTTGTACACAAATGGTAAAGTAT [XGTACX_site2343]”, with 8.26 ± 0.45.
On to “TTTGTACCGGCATTTTTTTTTTCTTTTTTTTTCCAA [XGTACX_negctrl_site323]”, for which the “gcPBM binding intensity (ln)” value was found to be 7.64 ± 0.4.
Then “TATTAAAAATGTTAAGTGCAAAAATAAAAATTGTGG [GTGCAC_site9854]”, with 9.46 ± 0.53; and “TATAAATTATATATTTGTACGTATATCACATATATA [XGTACX_site7053]”, with 7.63 ± 0.33; and “TACATGAATATATAAAGAAAAAAAAAAAAACACACA [XGTACX_negctrl_site350]”, with 7.96 ± 0.32.
The same measure for “TTCTCATAATTAAATAGTACATATTTTAATAATCAC [XGTACX_site6116]”: 7.89 ± 0.16; for “TTTATTGAATAAAATGCACACGCATGCGTTATTTAT [CACACA_site9154]”: 8.98 ± 0.31; for “TATATGTTATATTTAACACACATATAAGGTACATAT [CACACA_site612]”: 8.04 ± 0.43.
Then “TGTTAAAGAGAAAGTACTACACATATTATGTGTTTT [XGTACX_site1435]”, with 7.7 ± 0.44.
As to “TTTTATAAACAGAGGGGTACGGGAAAAAAAAAAAAA [XGTACX_site1480]”, the “gcPBM binding intensity (ln)” value came out at 8.31 ± 0.73.
The same measure for TTTTTAAACCATGTTGTGCACATTTTTTTTGGATTT: 10.2 ± 0.14.
Then “TTAAAAAAAATTATTTGTACTTAAAAATTTTATATT [XGTACX_site8751]”, with 7.56 ± 0.17; and “AGAAAAAAAAAACACACACACACACCGTCAATATAA [CACACA_site7895]”, with 7.79 ± 0.42; and “TATGTATGTTAGTGTGCACACATAAATATTATATAT [CACACA_site9121]”, with 9.56 ± 0.057.
